# Source: the supplement of paper PMC11417369
# ± gives the standard deviation of the averaged measurements. The list shows a part of the results.
# System: PfAP2-EXP AP2 domain (GST-tagged)
# Assay: gcPBM binding intensity (ln(normalized median fluorescence intensity)); higher = stronger DNA binding
# Summary of the method: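 Binding intensity values are the highest Masliner-normalised natural-log median intensity among replicate spots of either probe orientation. The binding step lasted 1 h in 1× PBS with 1% milk, 0.2 mg/ml BSA, 0.5% salmon testes DNA and 0.03% Triton X-100, using GST-tagged P. falciparum DNA-binding domains expressed in E. coli on an Agilent 4 × 180k array of primer-extended double-stranded 36-bp intergenic genomic probes plus negative controls. Alexa488 anti-GST antibody and a 488 nm scan detected bound protein.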
row,Sequence,gcPBM binding intensity (ln)
1,AAAAAAAAAATAAAATAAAATATATTATATATATTA [GTGCAC_negctrl_site431],7.89 ± 0.48
2,TCACTTTTTATTAAATGTACATGCTTTCATTTTCAT [XGTACX_site8139],8.89 ± 0.43
3,TATATATATATATATGTACACACATCAATCATATTA [CACACA_site8594],10.1 ± 0.36
4,GAATAAATAATTAACACACACAATCTTTTTTTTTTT [CACACA_site3140],8.24 ± 0.27
5,TGTACGAGTCGTAGAGTGCAGTCTGGAGAAAAGTAC [GTGCAC_site9683],9.37 ± 0.39
6,TATATATATATATATACACACTTGTGCAGAATATTA [CACACA_site5257],10 ± 0.55
7,AACGTGTATTTATATTGTACACATTCATACATCAAA [XGTACX_site3644],8.66 ± 0.13
8,GTAGTGGTTGAATATACACACATATATATATATATA [CACACA_site2651],10.1 ± 0.3
9,AGATAATAGGTTACTTGTACATATAAATAAATATAT [XGTACX_site158],8.46 ± 0.31
10,AAAATCTAATATAATGCACACATAAAAAAAAATCAA [CACACA_site9211],8.59 ± 0.33
11,AAAAAAAAAAAAAATTCACACAAGACTACTACATTT [CACACA_site4195],8.13 ± 0.49
12,TTTTGTTATTATGAAGTGCATTTATGTTCATGTCTA,8.69 ± 0.26
13,ATATTAATTTCTCATGCATGTTCTACCCAATTGTAA [TGCATGCA_site355],9.28 ± 0.38
14,TATATTATATATATACTGCACTGTTTTACAAAATTA,8.78 ± 0.11
15,ATATATGACTAATAAAGTACATACTTCATATAATTA [XGTACX_site6699],8.41 ± 0.14
16,ACCCTTTTATATAAGAGTACAAACGTATTATTAAAT [XGTACX_site2221],8.48 ± 0.36
17,AATATTAAAAACAAAACACACAAAAAAAAATAAAAT [CACACA_site702],8.74 ± 0.57
18,TTTTAGTTATTGTATTATTATTAATATATAATATCT [CACACA_negctrl_site1528],8.35 ± 0.42
19,AAAGCATGTTAATATGTATAAATACTGATCATTCAC [GTGCAC_negctrl_site576],8.42 ± 0.27
20,CTAAAATGTAAAAACGCACACATAATATTATAAAAA [CACACA_site2788],8.88 ± 0.6
21,TGAATAAATCAAAGCACACATACACAGACATATATA [CACACA_site4316],8.79 ± 0.4
22,AACAGATAATATAAAAAAAAAAAAAAAAATAATTAA [GTGCAC_negctrl_site69],8.07 ± 0.53
23,TATATAAATAAACACACACACACCTTATAATTATTA [CACACA_site9345],8.69 ± 0.58

row,Sequence,gcPBM binding intensity (ln)
1,CTTGTCATTTGGCACACACACATGTATAGGTTATTA [CACACA_site5656],8.71 ± 0.42
2,TAAAGTTTTTCCTATCTATATTTATATTATAAATGA [XGTACX_negctrl_site20],8.11 ± 0.46
3,GTGAGTGAAATATGCAAACACACACCCGAAAAATGT [CACACA_site3197],8.7 ± 0.57
4,TATAAAGGTATACAAAGTACAAAATACATATATACT [XGTACX_site6431],8.42 ± 0.31
5,TATGATTTTAATGAAACACACAATTTTATGTTAATA [CACACA_site311],8.11 ± 0.4
6,TAATATATGTTATATACACACATATAAATATAAATA [CACACA_site6339],8.29 ± 0.42
7,TGTGTATAAGTCACTTGTACTAGTAGTAAAAAAAAA [XGTACX_site4341],8.61 ± 0.42
8,TGAAGTATAATTTATCTAATATGTTATATTTTATTT [TGCATGCA_negctrl_site56],7.76 ± 0.46
9,CAAATAATATTATGAAGTACTTCAAATTTTGAAAGA [XGTACX_site2530],8.52 ± 0.28
10,TTTAATATTATTATTTTACACACTTTTTTCCTTTTA [CACACA_site8780],8.49 ± 0.42
11,AATATAGGTATATCCACACACATATTTATATTTATA [CACACA_site6867],8.52 ± 0.38
12,TCTTATAAACTCTGCACACATAATATATTAAATGAG [CACACA_site1936],8.48 ± 0.35
13,TTTTTTACAGAAAAATATTAAAATTATAAATGTGAA [GTGCAC_negctrl_site451],8.39 ± 0.37
14,GCCCACACGAACCATGCATGCCACGATATAAACCAC [TGCATGCA_site322],9.27 ± 0.46
15,TATGAAATTTTAATTACACACAGGAAAATAAAATGT [CACACA_site8430],8.73 ± 0.35
16,TAATATATATATATGGTGCATTTAATTTATATATAA,8.75 ± 0.3
17,TTATAATATATATAAAAGAAAAAAAATTATAATATA [CACACA_negctrl_site90],8.39 ± 0.48
18,TTATTTTTCTTTATTGGTACACACGAAAAAAAAATT [XGTACX_site6482],8.47 ± 0.3
19,ATATATATTTTTAATTGTACAGAATTAAAAATATTG [XGTACX_site1967],8.4 ± 0.36
20,CTTTAACCATATATGTGTACGTATTTTATTCATATT [XGTACX_site6212],9.14 ± 0.3
21,AAAAAAAAAAAAAGCTGTACAATTAAAGACAAACCT [XGTACX_site8610],8.85 ± 0.77
22,AAGAAGTGGAAAATATACTCCACATATATATATGTG [CACACA_negctrl_site304],8.52 ± 0.23
23,AAAAAACAATTTGTGTGTACACATGATACGTTCGAT [XGTACX_site4112],8.88 ± 0.56

row,Sequence,gcPBM binding intensity (ln)
1,TATATAGTAAATATTTGTACATAATAAAATATATGT [XGTACX_site7873],8.38 ± 0.29
2,ATCTTAATTTTTGAAGGTACACACTAATATATTAAA [XGTACX_site2292],8.51 ± 0.42
3,ATATTTTATTATATAGGTACACATAATTTCATGTAA [XGTACX_site415],8.4 ± 0.23
4,AATAAATAAAAATGCACACAGTTAACATGTTGAATT [CACACA_site4795],8.77 ± 0.45
5,TTTTGTACATCTTTTGCACACGTAATGTTATTATAA [CACACA_site1259],8.935 ± 0.035
6,TTTTTTTTTTATTAATGTACAAGATATATAATGTTA [XGTACX_site4809],8.21 ± 0.44
7,TATAATATAAAAATGAGTACATAGATAATAATATTT [XGTACX_site2376],8.66 ± 0.3
8,ATATGGATTATACATACATGCATACATACATACATA [TGCATGCA_site475],8.63 ± 0.17
9,TATATACATATATGCACACAAAAAAATATATATTTT [CACACA_site1729],8.7 ± 0.36
10,TGCAATATATCAAAGTGTACATGCAATAAAAAAAAA [XGTACX_site652],9.21 ± 0.38
11,AATGATACACATATATGTACATATATATATATATAT [XGTACX_site5391],10 ± 0.58
12,AAATGTAGAAAAAGTTGTACACTGTTTCAAAAATAA [XGTACX_site1063],8.55 ± 0.34
13,AAAATTTAATATAATGCACACATAAAACAAAAACAA [CACACA_site8071],9.04 ± 0.33
14,TTTAAAGTTTTATACACACACCAAAGTTATTCTAAT [CACACA_site6432],8.33 ± 0.41
15,CAATGAAAAATAATGAGTACATAGTTAATAAAGATA [XGTACX_site72],8.81 ± 0.43
16,AATTTCTTTTTCGATATACACACTGTATGTGTCTAA [CACACA_site3975],8.62 ± 0.47
17,ATAATTAAAATTAAATGTACTTTTTTATATATTTTT [XGTACX_site2209],8.2 ± 0.3
18,CATAAATAATATATTTGTACGAATAAAATTTGTTCA [XGTACX_site3445],8.2 ± 0.4
19,TAAAACAATATAAAATGTACAGAATTTTTTTTTCTT [XGTACX_site6820],8.02 ± 0.4
20,ATAATGAAAAGAAAGGGTACAAAAAAAAAAAAAAAT [XGTACX_site3350],8.87 ± 0.38
21,TTCTTTTATGATAATTGTACCCTTTTTAAAAAGAAA [XGTACX_site7815],8.69 ± 0.37
22,AACTGATTATTTTTTTGTACATATATAATAATATAT [XGTACX_site5953],8.61 ± 0.33
23,TTTTTTTTCAATGGCACACATTTTAGATTTATGCTT [CACACA_site4735],8.43 ± 0.42

row,Sequence,gcPBM binding intensity (ln)
1,ACATGTGAATTTTAGGTGCACTTGTAATTTAACATT,8.805 ± 0.021
2,TTTTTATTTATTCTCTTTGTATTATAAAATAAAAGC [XGTACX_negctrl_site253],8.4 ± 0.34
3,ATATATATATAATGTTGTACATAAATATTATATTTA [XGTACX_site5225],9.62 ± 0.16
4,GGAAAAATATAATATGCATGTTATTATTTTTTTATA [TGCATGCA_site836],8.32 ± 0.27
5,TATTTATTTATTTAATGTACAAAAGAACAAGAATTT [XGTACX_site2248],8.51 ± 0.52
6,TATGTATATACATAAACATGCAAAAACAATATCTTA [TGCATGCA_site950],8.66 ± 0.35
7,TCTTAATCGTATTATTACTATAATTATATAATATTT [CACACA_negctrl_site1594],8.79 ± 0.75
8,TTCTTCTGTTTTATTACACACCATTTTGTGTATACA [CACACA_site7059],8.96 ± 0.35
9,CAAAAAGGAATGTATGCACACAATTGATTTTAACTC [CACACA_site1468],8.7 ± 0.38
10,AACGATATATGTACTACACACATTATGTCATCCTAT [CACACA_site2464],8.76 ± 0.28
11,ATATATATATTATATAGTACAGAGTATACTATTATA [XGTACX_site1893],8.925 ± 0.021
12,ACAAAAGGGGAATACACACACATATATATATATATA [CACACA_site2215],10.2 ± 0.52
13,GATCTAAAAACAAGGTGTACAAGAAAAAAAAAAAAA [XGTACX_site7577],8.47 ± 0.5
14,AGTTATATGTACTACACACGTACACAAAATAAGATA [CACACA_site3719],8.88 ± 0.18
15,CTTAATTTTTTTTAATGTACATACATATAAACCTTT [XGTACX_site2233],8.62 ± 0.45
16,TATTCTTTTATGAATACACACATATACGAAAATATT [CACACA_site6585],8.41 ± 0.45
17,AAGGAGAAATATTGCACACGTGCAAAATGGTATGAG [CACACA_site259],9.2 ± 0.13
18,AAAATTAAAAATAACACACACATATTTATATTTATA [CACACA_site7329],8.12 ± 0.39
19,AAATGTTAAAAAGAGAAAAACAATAAAAAACAATTA [CACACA_negctrl_site1044],8.64 ± 0.39
20,AAAAGGTTATCAAAATGTACGAAATGTTACAAAAAT [XGTACX_site6215],8.66 ± 0.47
